# Experimental data published in PubChem BioAssay AID1745853 (National Center for Advancing Translational Sciences (NCATS), 2022).
# “And” between values parts separate entries of the source, which are not always exact repeats. Identical values can stand only once. This is one part of the list. Further columns of the screen follow, without active or inactive calls.
# Key:
# Assay in all cases: Primary Screen for Target Class Profiling of Small Molecule Inhibitors of Methyltransferases
# [1] = molecular target: Glycine N-methyltransferase (Homo sapiens) (UniProt Q14749); conditions: purified enzyme, MTase-Glo SAH luminescence; measured here: GNMT inhibition; at 40 µM; stronger effect = lower value
# Outline: (§1)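 Each enzyme was reacted with SAM and its substrate, with compounds tested once at 40 uM; SAH formed was read by MTase-Glo luminescence.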
# [2] = molecular target: Guanidinoacetate N-methyltransferase (Homo sapiens) (UniProt Q14353); conditions: purified enzyme, MTase-Glo SAH luminescence; measured here: GAMT inhibition; at 40 µM; stronger effect = lower value
# Outline: as §1
# [3] = molecular target: Histamine N-methyltransferase (Homo sapiens) (UniProt P50135); conditions: purified enzyme, MTase-Glo SAH luminescence; measured here: HNMT inhibition; at 40 µM; stronger effect = lower value
# Outline: as §1
# [4] = molecular target: Nicotinamide N-methyltransferase (Homo sapiens) (UniProt P40261); conditions: purified enzyme, MTase-Glo SAH luminescence; measured here: NNMT inhibition; at 40 µM; stronger effect = lower value
# Outline: as §1
# [5] = molecular target: Phenylethanolamine N-methyltransferase (Homo sapiens) (UniProt P11086); conditions: purified enzyme, MTase-Glo SAH luminescence; measured here: PNMT inhibition; at 40 µM; stronger effect = lower value
# Outline: as §1
# % is scaled to controls: 0 for no effect and ±100 for the full control effect.
SMILES,"activity change, negative = inhibition [1]","activity change, negative = inhibition [2]","activity change, negative = inhibition [3]","activity change, negative = inhibition [4]","activity change, negative = inhibition [5]"
CCCN1C(=O)c2cc(C(=O)NCc3ccccc3F)nn2CC1(C)C(=O)NC1CCCC1 (configuration not stated),1.53%,0%,2.12%,2.26%,-2.86%
CC(C)OCCCn1c(=O)c2ccccc2n2c(CCC(=O)N3CCN(Cc4ccccc4)CC3)nnc12,-8.01%,0%,1.55%,1.96%,-1.05%
CN(C)C(=O)N1CCN(c2ccc(Cl)nn2)C(=O)C1,-6.93%,-7.29%,-5.46%,-11.1%,0.418%
CCn1c(=O)c(-c2ccn[nH]2)cc2c(C)nc(N)nc21,-14.1%,-4.11%,-0.893%,-14.7%,-9.58%
CN(C)c1nc(NC2CC(c3cc(=O)[nH]c(C4CC4)n3)C2)ncc1F (configuration not stated),-15%,-8.52%,-37.2%,-16.1%,-13.1%
COc1ccc(-c2[nH]ncc2CN2CC[C@H]3CC[C@@H](C2)N3)cc1,-7.24%,-5.99%,-57.6%,-12%,-4.69%
CCOC(=O)c1cc2n(n1)CC(C)(C(=O)NCCOC)N(Cc1ccccc1OC)C2=O (configuration not stated),2%,5.69%,4.59%,2.88%,0.939%
COC(=O)N[C@@H](C)CNc1nccc(-c2cn(C(C)C)nc2-c2cc(Cl)cc(NS(C)(=O)=O)c2F)n1,-12.7%,-25.8%,-6.3%,-32.2%,-18.6%
CCCN1C(=O)c2c(C(=O)NCc3ccccc3F)ncn2CC1(C)C(=O)NCc1ccc(C)cc1 (configuration not stated),-5.28%,0%,-2.69%,-1.65%,1.04%
C[N+]1(CC2COC(c3ccccc3)(c3ccccc3)O2)CCCCC1 (configuration not stated),-2.4%,8.34%,-18.8%,-20.4%,-10.9%
CCc1cccc(CC)c1NC(=O)N1Cc2[nH]nc(NC(=O)c3ccc(N4CCN(C)CC4)cc3)c2C1,-0.582%,10.3%,-19.2%,-10.4%,-1.2%
Cc1noc(C)c1[S+](=O)([O-])N1CCCC1C(=O)N1CCC(c2nc3ccncc3[nH]2)CC1 (configuration not stated),-5.58%,-10.9%,-10.2%,-16.3%,-10.7%
O=C1OCC2(CCN(Cc3c[nH]c4ccccc34)C2)N1Cc1ccccc1 (configuration not stated),-8.71%,-6.12%,-7.4%,-15.9%,-14.2%
O=C(NCc1ccc(F)cc1)c1ccc2c(=O)nc3c(-c4ccccc4F)n[nH]n3c2c1,-21.1%,4.83%,1.15%,1.58%,-0.288%
COc1cccc(CN2CCC(C(=O)N3CCCCCCNC(=O)CC3)CC2)c1,-3.81%,-4.56%,-5.8%,-12%,-4.48%
COC(=O)C1=CO[C@@H](O[C@@H]2O[C@H](CO)[C@@H](O)[C@H](O)[C@H]2O)C2C1CC(O)C2C (some centres not stated),3.34%,–,4.96%,–,–
CCC(C)NC(=O)c1ccc2c(=O)n(C)c3nnc(SCC(=O)NC4CCCC4)n3c2c1 (configuration not stated),5.42%,0%,7.31%,7.71%,5.05%
CC(C)n1cnc2c(Nc3cccc(Cl)c3)nc(NCCO)nc21,-16.5%,-12.4%,-12.6%,-28.4%,-11.6%
CC1(C(=O)NC2CCCCCC2)Cn2c(cc3sccc32)C(=O)N1Cc1ccco1 (configuration not stated),-0.413%,2.85%,-3.99%,-3.94%,-6.03%

SMILES,"activity change, negative = inhibition [1]","activity change, negative = inhibition [2]","activity change, negative = inhibition [3]","activity change, negative = inhibition [4]","activity change, negative = inhibition [5]"
COCCNC(=O)c1cc(-c2ccc(Cl)nc2)nc2c1cnn2C,-6.74%,-0.776%,-3.16%,-10.6%,-3.29%
CCCn1c(=O)c2ccccc2n2c(SCC(=O)Nc3ccccc3OC)nnc12,-8.47%,3.07%,4.71%,-7.35%,-0.801%
CC(C)Cn1c(=O)c2ccccc2n2c(CCC(=O)NCc3cccnc3)nnc12,-3.18%,0%,-7.45%,-2.76%,-9.67%
CC(C)Cn1c(=O)c2ccc(C(=O)NC(C)C)cc2n2c(SCC(=O)Nc3ccccc3F)nnc12,-4.25%,-1.53%,-1.24%,-8%,-4.61%
Cc1nn(-c2ccccc2)c2c1C(C(C)C)N(C1CCCN(C(=O)c3ccccc3F)C1)C2=O (configuration not stated),-1.27%,-0.37%,-3.04%,-5.24%,1%
CCOCCn1c(=O)n(Cc2cc(OC)ccn2)c2cc(C(=O)O)cnc21,-3.46%,0.363%,0.252%,-4.6%,-4.44%
CC(C)CCN1C(=O)c2ccccc2CC1(C)C(=O)NC1CCCCC1 (configuration not stated),1.42%,0%,6.74%,5.49%,-0.046%
COc1ccccc1CCNC(=O)CCn1ccc2cc(S(=O)(=O)N3CCC(C)CC3)ccc21,0.415%,0%,1.09%,-7.25%,0.772%
CCC(C)NC(=O)c1ccc2c(=O)n(C(C)C)c3nn(Cc4ccccc4F)c(=O)n3c2c1 (configuration not stated),-6.23%,-0.855%,-0.122%,-10.2%,-6.04%
COc1ccc(CN2C(=O)COC[C@H]2C(=O)N2CCc3ccccc3C2)c(OC)c1,-9.68%,-10.1%,-5.3%,-11.4%,-9.29%
COc1ccc(Cl)cc1C(=O)NCCc1ccc(S(=O)(=O)NC(=O)NC2CCCCC2)cc1,-4.22% and -5.05%,-4.84% and 15.7%,10.5% and 8.5%,-25% and -2.14%,-3.2% and 7.5%
O=C1[C@H]2CN(Cc3ccncc3)C[C@H]2C(=O)N1Cc1ccc2c(c1)OCO2,-11.1%,-8.28%,-2.85%,-13.3%,-13%
CC(C)n1c(=O)c2ccc(C(=O)NC3CCCC3)cc2n2c(=O)n(Cc3ccccc3F)nc12,-0.858%,4.9%,8.07%,-2.43%,1.88%
CC(=O)CCC1=C(C)C(O[C@@H]2O[C@H](CO)[C@@H](O)[C@H](O)[C@H]2O)C(O)CC1(C)C (some centres not stated),0.48%,7.68%,12.1%,-3.43%,6.17%
CC[N+]1(C/C2=C/CCCCCC2)CCC(NC(=O)C2c3cc(Cl)ccc3Oc3ccc(Cl)cc32)CC1 (configuration not stated),-12.8%,3.82%,-55.2%,-28.4%,-3.01%
COc1ccc(CNC(=O)c2cc3n(n2)CC(C)(C(=O)NCCC(C)C)N(C)C3=O)cc1OC (configuration not stated),9.64%,1.06%,8.22%,12.4%,5.11%
O=C(O)c1ccc2c(c1)N(C(=O)c1ccc(F)cc1)CC2,-1.44%,0.076%,1.61%,-1.92%,0.634%
C[C@H]1[C@@H]2[C@@H](O)C([C@H](C)C(=O)NCc3cccnc3)CC[C@@]2(C)CC[C@@H]1NC(=O)c1ccccn1 (some centres not stated),-5.92%,-4.1%,-2.93%,6.13%,12%
C[C@@H]1CN(C[C@@H]2CN(C(=O)c3ccsc3)C[C@@H]2CO)C[C@H](C)O1,-0.895%,0.304%,-0.523%,0.252%,-4.5%
